Results published in PubChem BioAssay AID1745853 (National Center for Advancing Translational Sciences (NCATS), 2022).
This is one part of the list. The main result of the screen is listed elsewhere. These columns were measured beside it and carry no call.

Key:
Assay in all cases: Primary Screen for Target Class Profiling of Small Molecule Inhibitors of Methyltransferases
[1] = molecular target: Glycine N-methyltransferase (Homo sapiens) (UniProt Q14749); details: purified enzyme, MTase-Glo SAH luminescence; measured here: GNMT inhibition; at 40 µM; stronger effect = lower value
Method in brief: (§1)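 Each enzyme was assayed with SAM and its substrate. SAH formation detected by MTase-Glo luminescence; single-point 40 uM screen[…].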

[2] = molecular target: Guanidinoacetate N-methyltransferase (Homo sapiens) (UniProt Q14353); details: purified enzyme, MTase-Glo SAH luminescence; measured here: GAMT inhibition; at 40 µM; stronger effect = lower value
Method in brief: as §1

[3] = molecular target: Histamine N-methyltransferase (Homo sapiens) (UniProt P50135); details: purified enzyme, MTase-Glo SAH luminescence; measured here: HNMT inhibition; at 40 µM; stronger effect = lower value
Method in brief: as §1

[4] = molecular target: Nicotinamide N-methyltransferase (Homo sapiens) (UniProt P40261); details: purified enzyme, MTase-Glo SAH luminescence; measured here: NNMT inhibition; at 40 µM; stronger effect = lower value
Method in brief: as §1

[5] = molecular target: Phenylethanolamine N-methyltransferase (Homo sapiens) (UniProt P11086); details: purified enzyme, MTase-Glo SAH luminescence; measured here: PNMT inhibition; at 40 µM; stronger effect = lower value
Method in brief: as §1
% is scaled to controls: 0 for no effect and ±100 for the full control effect.

Structure (SMILES): CC(C)CCNC(=O)C1c2c(n(C)c3ccccc23)SCC(=O)N1c1ccccc1F (stereo not given)
- activity change, negative = inhibition [1]: 7.81%
- activity change, negative = inhibition [2]: 3.11%
- activity change, negative = inhibition [3]: 2.12%
- activity change, negative = inhibition [4]: -2.75%
- activity change, negative = inhibition [5]: 3.96%

Structure (SMILES): Cc1nn(C)c(C)c1CCN(C)C(=O)C1CCN(C(=O)N2CC3CC(C2)[C@H]2CCCC(=O)N2C3)CC1 (stereo not given in full)
- activity change, negative = inhibition [1]: -4.24%
- activity change, negative = inhibition [2]: -5.96%
- activity change, negative = inhibition [3]: -2.56%
- activity change, negative = inhibition [4]: -9.19%
- activity change, negative = inhibition [5]: 0.892%

Structure (SMILES): CCCN1CCN(C(=O)c2ccc3c(c2)n(CC)c(=O)c2ccnn23)CC1
- activity change, negative = inhibition [1]: -8.12%
- activity change, negative = inhibition [2]: -5.35%
- activity change, negative = inhibition [3]: -35.8%
- activity change, negative = inhibition [4]: -14.9%
- activity change, negative = inhibition [5]: -1.37%

Structure (SMILES): COc1ccc(-c2ccn(CC[C@](C)(C(=O)NO)S(C)(=O)=O)c(=O)c2)c(F)c1
- activity change, negative = inhibition [1]: 1.23%
- activity change, negative = inhibition [2]: 3.11%
- activity change, negative = inhibition [3]: 11.1%
- activity change, negative = inhibition [4]: -8.11%
- activity change, negative = inhibition [5]: 6.11%

Structure (SMILES): COc1ccc(N2CCN(C(=O)c3cc4c(s3)CN(C3CCCC3)C4)CC2)cc1
- activity change, negative = inhibition [1]: -1.17%
- activity change, negative = inhibition [2]: -0.782%
- activity change, negative = inhibition [3]: -2.17%
- activity change, negative = inhibition [4]: -2.58%
- activity change, negative = inhibition [5]: 10.1%

Structure (SMILES): CCc1ccc(S(=O)(=O)c2nnn3c2nc(N2CCC(C(N)=O)CC2)c2cc(Cl)ccc23)cc1
- activity change, negative = inhibition [1]: -23%
- activity change, negative = inhibition [2]: 3.59%
- activity change, negative = inhibition [3]: -10.3%
- activity change, negative = inhibition [4]: -10.4%
- activity change, negative = inhibition [5]: -7.06%

Structure (SMILES): CC1CCC(NC(=O)C2(C)Cn3c(cc4occc43)C(=O)N2Cc2ccco2)CC1 (stereo not given)
- activity change, negative = inhibition [1]: -14.9%
- activity change, negative = inhibition [2]: -0.496%
- activity change, negative = inhibition [3]: -5.89%
- activity change, negative = inhibition [4]: -3.38%
- activity change, negative = inhibition [5]: -8%

Structure (SMILES): COC(=O)COc1ccc2c(-c3ccccc3)cc(=O)oc2c1C
- activity change, negative = inhibition [1]: -5.27%
- activity change, negative = inhibition [2]: -1.1%
- activity change, negative = inhibition [3]: -4.08%
- activity change, negative = inhibition [4]: -15.4%
- activity change, negative = inhibition [5]: -17.1%

Structure (SMILES): Cc1ccc(S(=O)(=O)Nc2ccc3c(c2)CN(CCc2ccc(F)cc2)C(=O)C(C)O3)cc1F (stereo not given)
- activity change, negative = inhibition [1]: -8.38%
- activity change, negative = inhibition [2]: -12%
- activity change, negative = inhibition [3]: -4.97%
- activity change, negative = inhibition [4]: -24.4%
- activity change, negative = inhibition [5]: -10.2%

Structure (SMILES): Cc1ccc(-n2ncc3c2CC(C)(C)CC3NS(=O)(=O)c2cn(C)cn2)cc1 (stereo not given)
- activity change, negative = inhibition [1]: -9.2%
- activity change, negative = inhibition [2]: -11.7%
- activity change, negative = inhibition [3]: -4.89%
- activity change, negative = inhibition [4]: -13.9%
- activity change, negative = inhibition [5]: -7%

Structure (SMILES): c1ccc(-c2cc3c(cn2)NCCN(CC2CC2)C3)cc1
- activity change, negative = inhibition [1]: -17.6%
- activity change, negative = inhibition [2]: -13.9%
- activity change, negative = inhibition [3]: -72.8%
- activity change, negative = inhibition [4]: -31.3%
- activity change, negative = inhibition [5]: -31.5%

Structure (SMILES): COc1ccccc1OCCNCC(O)CCOc1cccc2[nH]c3ccccc3c12 (stereo not given)
- activity change, negative = inhibition [1]: -3.01%
- activity change, negative = inhibition [2]: 5.44%
- activity change, negative = inhibition [3]: -8.38%
- activity change, negative = inhibition [4]: -16%
- activity change, negative = inhibition [5]: -91.6%

Structure (SMILES): O=c1c2ccccc2n2c(=O)n(Cc3ccccc3)nc2n1Cc1ccccc1
- activity change, negative = inhibition [1]: 2.62%
- activity change, negative = inhibition [2]: 4.59%
- activity change, negative = inhibition [3]: 7.41%
- activity change, negative = inhibition [4]: 4.31%
- activity change, negative = inhibition [5]: 2.14%

Structure (SMILES): COc1cc(N2CCC(N3CCN(C)CC3)CC2)ccc1Nc1ncc(Cl)c(Nc2ccccc2S(=O)(=O)C(C)C)n1
- activity change, negative = inhibition [1]: -56.8%
- activity change, negative = inhibition [2]: 6.35%
- activity change, negative = inhibition [3]: -54.6%
- activity change, negative = inhibition [4]: -6.23%
- activity change, negative = inhibition [5]: -5.61%

Structure (SMILES): CCc1ccc(S(=O)(=O)c2nnn3c2nc(NC(C)C)c2cc(Cl)ccc23)cc1
- activity change, negative = inhibition [1]: -3.05%
- activity change, negative = inhibition [2]: 0.041%
- activity change, negative = inhibition [3]: -2.62%
- activity change, negative = inhibition [4]: -11.2%
- activity change, negative = inhibition [5]: -3.71%

Structure (SMILES): CC1(C)CC[C@]2(C(=O)O)[C@H](O)C[C@]3(C)C(=CCC4[C@@]5(C)CC[C@H](O[C@@H]6O[C@H](CO[C@@H]7OC[C@H](O)[C@H](O)[C@H]7O[C@@H]7OC[C@H](O)[C@H](O)[C@H]7O)[C@@H](O)[C@H](O)[C@H]6O)C(C)(C)C5CC[C@]43C)[C@@H]2C1 (stereo not given in full)
- activity change, negative = inhibition [1]: 4.03%
- activity change, negative = inhibition [2]: 3.25%
- activity change, negative = inhibition [3]: 10.3%
- activity change, negative = inhibition [4]: -10.6%
- activity change, negative = inhibition [5]: 5.8%

Structure (SMILES): Cn1ccc(C(=O)NCc2nnc3n2C(C(=O)NCC2CC2)CC3)n1 (stereo not given)
- activity change, negative = inhibition [1]: 3.43%
- activity change, negative = inhibition [2]: 3.7%
- activity change, negative = inhibition [3]: 1.41%
- activity change, negative = inhibition [4]: 1.28%
- activity change, negative = inhibition [5]: 5.13%

Structure (SMILES): Cc1ccccc1[C@H]1C[C@@H](O)[C@@H](O)[C@@H]1NC(=O)c1c(-c2ccccc2)noc1C
- activity change, negative = inhibition [1]: -0.128%
- activity change, negative = inhibition [2]: -3.35%
- activity change, negative = inhibition [3]: -3.07%
- activity change, negative = inhibition [4]: -0.112%
- activity change, negative = inhibition [5]: 2.51%

Structure (SMILES): CCN1C(=O)c2cc(C(=O)NC3CCN(Cc4ccccc4)CC3)nn2CC1(C)C(=O)NC1CCCC1 (stereo not given)
- activity change, negative = inhibition [1]: 6.78%
- activity change, negative = inhibition [2]: 0%
- activity change, negative = inhibition [3]: -3.72%
- activity change, negative = inhibition [4]: 8.64%
- activity change, negative = inhibition [5]: 7.41%

Structure (SMILES): COc1cc(/C=C/c2cc(O)cc(O[C@@H]3O[C@H](CO)[C@@H](O)[C@H](O)[C@H]3O)c2)ccc1O
- activity change, negative = inhibition [1]: -0.643%
- activity change, negative = inhibition [2]: -15.7%
- activity change, negative = inhibition [3]: -7.56%
- activity change, negative = inhibition [4]: -26.4%
- activity change, negative = inhibition [5]: 0.687%

Structure (SMILES): Cn1nccc1C(=O)N1CCCC(c2nc(-c3ccccc3)no2)CCNC(=O)CC1 (stereo not given)
- activity change, negative = inhibition [1]: -3.54%
- activity change, negative = inhibition [2]: 1.01%
- activity change, negative = inhibition [3]: -3.42%
- activity change, negative = inhibition [4]: -3.41%
- activity change, negative = inhibition [5]: 0.317%

Structure (SMILES): CN1CCN(C(=O)CN[C@@H]2C[C@H]2c2ccc(OCc3ccccc3)cc2)CC1
- activity change, negative = inhibition [1]: -0.157%
- activity change, negative = inhibition [2]: 0.39%
- activity change, negative = inhibition [3]: -0.037%
- activity change, negative = inhibition [4]: -12.2%
- activity change, negative = inhibition [5]: -4.83%

Structure (SMILES): Cc1cccc(CNC(=O)C2CCc3sc(C(=O)N4CCOCC4)cc3C2)c1 (stereo not given)
- activity change, negative = inhibition [1]: -1.33%
- activity change, negative = inhibition [2]: -0.593%
- activity change, negative = inhibition [3]: 0.888%
- activity change, negative = inhibition [4]: -3.7%
- activity change, negative = inhibition [5]: 1.14%

Structure (SMILES): Cc1cccc(CNC(=O)C2(C)Cn3cnc(C(=O)NCc4ccccn4)c3C(=O)N2C2CC2)c1 (stereo not given)
- activity change, negative = inhibition [1]: -2.92%
- activity change, negative = inhibition [2]: 0%
- activity change, negative = inhibition [3]: 2.26%
- activity change, negative = inhibition [4]: -0.463%
- activity change, negative = inhibition [5]: -2.02%

Structure (SMILES): Cc1ccc(N2C(=O)c3cc4occc4n3CC2(C)C(=O)NC2CCCCC2C)cc1C (stereo not given)
- activity change, negative = inhibition [1]: 2.52%
- activity change, negative = inhibition [2]: 1.26%
- activity change, negative = inhibition [3]: 7.73%
- activity change, negative = inhibition [4]: 8.02%
- activity change, negative = inhibition [5]: 2.73%

Structure (SMILES): NC(=O)[C@@H]1CCCN1C(=O)c1ccc2oc(-c3cccc(F)c3)nc2c1
- activity change, negative = inhibition [1]: -8.32%
- activity change, negative = inhibition [2]: -8.79%
- activity change, negative = inhibition [3]: -8.03%
- activity change, negative = inhibition [4]: -9.16%
- activity change, negative = inhibition [5]: -2.11%

Structure (SMILES): C=CC[C@]12C[C@@H](OC)C(=O)C(OC)=C1O[C@@H](c1cc(OC)c3c(c1)OCO3)[C@@H]2C
- activity change, negative = inhibition [1]: -1.1%
- activity change, negative = inhibition [2]: 5.83%
- activity change, negative = inhibition [3]: 5.34%
- activity change, negative = inhibition [4]: -6.33%
- activity change, negative = inhibition [5]: 2.79%

Structure (SMILES): CC1CC(C)CN(S(=O)(=O)c2ccc3c(c2)oc(=O)n3CC(=O)NC2CCCCC2C)C1 (stereo not given)
- activity change, negative = inhibition [1]: -9.84%
- activity change, negative = inhibition [2]: 1.05%
- activity change, negative = inhibition [3]: -1.76%
- activity change, negative = inhibition [4]: -11%
- activity change, negative = inhibition [5]: -12.6%

Structure (SMILES): NCC(=O)N1CCC2(CC1)C(=O)NCN2C(=O)c1ccc(Cl)cc1
- activity change, negative = inhibition [1]: 1.91%
- activity change, negative = inhibition [2]: -1.88%
- activity change, negative = inhibition [3]: -0.253%
- activity change, negative = inhibition [4]: 0.009%
- activity change, negative = inhibition [5]: -5.56%
